# Results reported in publication PMC4336329 (PLoS ONE, 2015).
# Hit rate of the full screen: of about 310,000 compounds, about 14,000 (4.5%) showed an effect of 50% or more. Effects have a minus sign here. The list shows a part of the results.
# Molecular target: human ether-à-go-go-related gene (hERG) potassium channel (human, UniProt Q12809)
# Experiment: primary screen, population patch clamp on CHO cells stably expressing hERG
# 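Further: peak tail current of the secondary pulse compared with the same well before compound.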
# Sequence of human ether-à-go-go-related gene (hERG) potassium channel (Q12809 whole entry, looked up): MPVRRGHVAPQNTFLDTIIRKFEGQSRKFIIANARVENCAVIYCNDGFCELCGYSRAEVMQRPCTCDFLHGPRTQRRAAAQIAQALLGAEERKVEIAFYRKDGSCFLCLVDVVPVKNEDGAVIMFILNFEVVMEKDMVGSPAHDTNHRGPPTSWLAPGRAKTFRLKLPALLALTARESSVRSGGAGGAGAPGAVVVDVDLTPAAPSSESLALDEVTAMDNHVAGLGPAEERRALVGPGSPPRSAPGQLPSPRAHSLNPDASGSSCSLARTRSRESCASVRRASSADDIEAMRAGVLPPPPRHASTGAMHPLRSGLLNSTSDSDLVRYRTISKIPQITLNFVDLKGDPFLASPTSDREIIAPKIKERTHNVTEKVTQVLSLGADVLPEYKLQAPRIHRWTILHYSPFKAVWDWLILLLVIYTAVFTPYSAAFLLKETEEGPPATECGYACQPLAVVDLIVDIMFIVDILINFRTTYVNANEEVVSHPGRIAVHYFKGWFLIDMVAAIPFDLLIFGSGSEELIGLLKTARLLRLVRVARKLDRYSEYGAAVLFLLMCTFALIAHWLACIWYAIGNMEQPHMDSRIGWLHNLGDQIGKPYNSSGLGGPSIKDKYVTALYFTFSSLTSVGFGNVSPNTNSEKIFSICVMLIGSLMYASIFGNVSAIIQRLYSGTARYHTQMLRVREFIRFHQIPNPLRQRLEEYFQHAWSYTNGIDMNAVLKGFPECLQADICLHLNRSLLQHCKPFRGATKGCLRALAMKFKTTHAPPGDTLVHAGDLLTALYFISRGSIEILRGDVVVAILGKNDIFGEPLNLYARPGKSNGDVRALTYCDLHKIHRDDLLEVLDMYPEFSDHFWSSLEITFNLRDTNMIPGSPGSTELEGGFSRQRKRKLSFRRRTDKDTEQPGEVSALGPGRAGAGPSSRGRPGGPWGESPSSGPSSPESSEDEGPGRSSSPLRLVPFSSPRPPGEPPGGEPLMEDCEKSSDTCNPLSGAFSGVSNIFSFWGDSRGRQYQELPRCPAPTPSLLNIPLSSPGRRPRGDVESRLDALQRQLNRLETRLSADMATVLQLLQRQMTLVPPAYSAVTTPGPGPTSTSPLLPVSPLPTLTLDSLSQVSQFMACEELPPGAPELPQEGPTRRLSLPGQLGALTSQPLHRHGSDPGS
row,SMILES,"hERG current change (%, negative = inhibition) at 10uM [%]"
1,Cc1cc(=O)n2[nH]cc(C(=O)O)c2n1,-7.6
2,O=C(Nc1ccc(S(=O)(=O)N2C[C@@H]3C[C@@H](C2)c2cccc(=O)n2C3)cc1)c1ccc(F)cc1,-2.39
3,Cc1onc(-c2ccccc2)c1C(=O)N1CCN(CCc2ccccc2)CC1,-8.08
4,COc1cc(/C=N/n2nnnc2N)ccc1OCC(N)=O,22.6
5,Cc1[nH]c2ccccc2c1C(=O)C(=O)Nc1ccc2c(c1)OCCO2,7.07
6,COc1cc(CCC(=O)Oc2ccc(C(C)=O)cc2)cc(OC)c1OC,-15.2
7,Cc1ccc(-c2cnn(-c3cccc(C(F)(F)F)c3)c2N)cc1,-3.62
8,Brc1ccc(CN2CCN(Cc3c[nH]c4ccccc34)CC2)cc1.O=C(O)C(=O)O,-63.8
9,CCCCC1C(=O)CC[C@H]2[C@@H]1CC(=O)[C@@H]2C/C=C\CCCC(=O)O (stereo partly drawn),10.1
10,Cn1c(SCC(=O)NC(C)(C)C)nnc1-c1ccc(C(C)(C)C)cc1,4.2
11,Nc1ncc2c(n1)CC(c1ccco1)CC2=O (stereo not drawn),14.3
12,Cn1c(CCNC(=O)c2ccco2)nc2cc(NS(=O)(=O)c3ccccc3)ccc21,-6.01
13,O=C1CN(C(=O)CNC(=O)c2cccc(Cl)c2)c2ccccc2N1,2.69
14,Cc1ccc2c(c1)N(CC(=O)NCCc1ccc(Cl)cc1)C(=O)c1cccnc1O2,-38.9
15,CC(=O)Nc1ccc(S(=O)(=O)N(CCCN2CCOCC2)Cc2cccs2)cc1.O=C(O)C(=O)O,-20.9
16,Cc1ccc(C)c(C(=O)C(C)OC(=O)c2cccn2C)c1 (stereo not drawn),-4.35
17,CN(CC(=O)NC1CCCCCC1)S(=O)(=O)c1ccccc1,-7.74
18,CCOc1ccc(OCC)c(-c2c(=O)n(OCc3ccccc3C(=O)OC)c3ccccc3[n+]2[O-])c1,-28.8
19,CC1(C)NC(=O)N(CC(=O)OCC(=O)Nc2cccc(S(N)(=O)=O)c2)C1=O,1.63
20,Cc1csc(NC(=O)CSc2ccc(-c3ccccn3)nn2)n1,-73.6
21,NS(=O)(=O)c1ccc(CNC(=O)CSc2nc3ccc(Cl)cc3[nH]2)cc1,18.9
22,O=C(NNS(=O)(=O)c1ccccc1[N+](=O)[O-])c1cccc(Cl)c1,2.58
23,CN1CCc2c(sc(NC(=O)Cc3ccccc3)c2C#N)C1.Cl,-7.24

row,SMILES,"hERG current change (%, negative = inhibition) at 10uM [%]"
1,Cc1ccc(S(=O)(=O)N2CCC(C)CC2)cc1C(=O)NCCN1CCOCC1,11.4
2,CN(C)CCCCCNCCCNC(=O)/C=N\O,9.07
3,CC(C)c1csc(CN2CCN(Cc3ccccc3)C(CCO)C2)n1 (stereo not drawn),-26.3
4,COc1ccc2cc(C(=O)c3ccccc3)c(=O)oc2c1,9.44
5,CCc1ccc(-c2cc(C(=O)Nc3ccc(S(=O)(=O)NC(C)=O)cc3)c3ccccc3n2)cc1,4.85
6,COc1ccc(N/C(=C(/C(Cl)=C(Cl)Cl)[N+](=O)[O-])n2nnc3ccccc32)cc1,0.557
7,N/C(=N\c1nc(CSc2ccc(Cl)cc2)cc(=O)[nH]1)Nc1ccccc1C(F)(F)F,16.8
8,CC(C)OC(=O)c1sc2nc3c(cc2c1N)C(=O)CCC3,5
9,CCN(CC)P(c1n(C)cc[n+]1C)N(CC)CC.[I-],10.6
10,O=C(O)c1cccc(N/N=C/c2cc(Br)cc(Br)c2O)c1,18.9
11,Cc1ccc(C(=O)Nc2ccccc2C(=O)O)cc1S(=O)(=O)NC1CCCCC1,-15.2
12,CC1CN(S(=O)(=O)c2cccc(C(=O)NN3CCN(C)CC3)c2)CC(C)O1.Cl (stereo not drawn),2.62
13,CN(CC1CCN(CCc2cccc(C(F)(F)F)c2)CC1)C(=O)c1ccc(F)cc1F,-69.9
14,COc1ccc(S(=O)(=O)N2CCOC2CNC(=O)C(=O)NCc2ccccc2OC)cc1 (stereo not drawn),-7.74
15,CCOC(=O)c1cccc(NS(=O)(=O)c2c(C)[nH]c(=O)[nH]c2=O)c1,4.38
16,Oc1ccc(-c2cnns2)c(O)c1,13.9
17,Cc1cccc(NC(=O)C(C)N2C(=O)c3ccccc3S2(=O)=O)n1 (stereo not drawn),-15.9
18,O=S(=O)(CCc1ccccc1)N1CCOCC1,6.17
19,CCN1C(N(C)CCc2cccs2)=N[C@@H](c2ccccc2)C(C(=O)OC)=C1C,-53.8
20,N#C/C(=C\c1c(N2CCCCCC2)nc2ccccn2c1=O)C(N)=O,3.96
21,CN(c1ccccc1)S(=O)(=O)c1ccc(NC(=O)C2CC2)cc1,0.00628
22,CN(C(=O)c1ccc(NC(=O)Cc2cccc(NC(=O)C3CCN(C(=O)c4ccccc4)CC3)c2)cc1)C1CCCC1,5.6
